In the RNAGym collection of RNA variant scans (doi:10.1073/pnas.2313332121):
Variants at the background level are over-represented here.

B1: TPR 5TU (parent)
chain: GGAUCUUCUCGAUCUAACAAAAAAGACAAAUCUGCCACAAAGCUUGAGAGCAUCUUCGGAUGCAGAGGCGGCAGCCUUCGGUGGCGCGAUAGCGCCAACGUUCUCAACUAUGACACGCAAAACGCGUGCUCCGUUGAAUGGAGUUUAUCAUG

Variants of: B1
Assay: polymerase ribozyme fitness, log enrichment relative to wild type (log ratio); higher = more active; in vitro selection for triplet polymerase activity
How it was run: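 Genotype fitness is the logarithm of its enrichment divided by wild-type enrichment, using inverse-variance-weighted averages of replicates. That logarithm is base 2. Enrichment was measured by Illumina sequencing of input and output libraries from one triplicate in vitro selection round, with frozen incubation at −7 °C, on PCR-built, transcribed mutant libraries of each subunit of a heterodimeric triplet polymerase ribozyme, retaining genotypes with ≥10 input reads and ≥1 read per output.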

Row | Variant | polymerase ribozyme fitness (log ratio)
1 | GGAUCUUCUCGAUCUAACAACAAAGACAAAUCUGCCACAACGCUUGAGAGCAUCUUCGGAUGCAGAGGCGGCAGCCUUCGGUGGCGCGAUAGCGCCAACGUUCUCAACUAUGACGCGCAAAACGCGUGCUCCGUUGAAUGGAGUUUAUCAUG [A21C A41C A115G] | -1.51
2 | GGAUCUUCUCGAUCUAACAACAAAGACAAAUCUGCCACAAAGCUUGAGCGCAUCUUCGGAUGCAGAGGCGGCAGCCUUCCGUGGAGCGAUAGAGCUAACGUUCUCAACUAUGACACGCAAAACGCGUGCUCCGUUGAUUGGUGUUUAUCAUG [A21C A49C G80C C85A C93A C96U A138U A142U] | ≤ -4.2
3 | GGAUCUUCUCGAUCUAACAACAAUGACAAAUCUGCCACAAAGCUUGAGAGCAUGUUCGGAUGCAGAGGCGGCAGCCUUCGGUGGUGCGAUAGCGCCAACGUUCUCAACUAUGACACGCAACACGCGUGCUCCGUUGAAUGGAGUUUAUCAUG [A21C A24U C54G C85U A121C] | -0.525
4 | GGAUCUUCUCGAUCUAACAACAAAGACAAAUCUGACACAAAGCUUGAGAGCAUCUUCGGAUGCAGAGGCGGCAGCCUUCGGUGACGCGAUAGCGCCAACGUUCUCAACUAUGACACACAAAACGCGGGCUCCGUUGAAUGGAGUUUAUCAUG [A21C C35A G84A G117A U127G] | ≤ -4.2
5 | GGAUCUUCUCGAUCUAACAACAAAGACAAAUGUGCCACAAAGCUUGAGAGCAUCUACGGAUGCAGAGGCGGCAGCCUUCGGUGGCGCGAUCGCGUCAACGUUCACAACUUUGACACGCAAAACGCGUGCUCCGUUGAUUGGAGUUUAUCAUG [A21C C32G U56A A91C C95U U104A A110U A138U] | ≤ -4.2
6 | GGAUCUUCUCGAUCUAACAACAAGGACAAAUCUGCCACGAAGCUUGAGAGCAUUUUCGGAUGCAGAGGCGGCAGCCUGCGGUGGCGCGAUAGCACCAACGUUCUCAACUAUGACACGCAAAACGCGUGGUCCGGUGAAUUGAGUGUAUCAUG [A21C A24G A39G C54U U78G G94A C129G U134G G140U U145G] | ≤ -4.2
7 | GGAUCUUCUCGAUCUAACAACAAAGAGAAAUCUGCCACAAAGCUUGAGAGCAUCUUCGGAUGCAGAGGCGGCAGGCUUCGGAGGCGCGAUACCGCCAACGUUCUCAACCAUGACACUCAAAACGCGUGCUCCGUUGAAUGGAGUUUAUCAUG [A21C C27G C75G U82A G92C U109C G117U] | ≤ -4.2
8 | GGAUCUUCUCGAUCUAACAACAGAGACAAAUCUGCCACAAAGCUUGCGAGCAUCUUCGGAUGCAGAGGCGGCAGCCUUCGGUGGCGCAAUAGCGCCAACGUUCUCAACUAUGACACGCAAAACUCGUGCUCCGUUGAAUGGAGUUUAUCAGG [A21C A23G A47C G88A G124U U151G] | ≤ -4.2
9 | GGAUCUUCUCGAUCUAACAACAAAGACAAAUCUGCCACAAAGCUUGAGAGCAUAUUGGGAUGCAGAGGCGGCAGCCUUCGGUGGCGCGAUAGCGCCAACGUUCUCACCUAUGACACGCAAAACGCGUGCUCCGUUGAAUGAAGUUUAUCAUG [A21C C54A C57G A107C G141A] | ≤ -4.2
10 | GGAUCUUCUCGAUCUAACAACAAAGCCAAAUCUGCCACAAAGCUUGAGAGCAUCUUCGGAUGCAGAGGCGCCAGCGUUCGGUGGCGAGAUAGCGCCAACGUUCUCAAUUAUGACACGCAAAACGCGUGCUCCGUUGAAUGGAGUUUAUCAUG [A21C A26C G71C C76G C87A C108U] | ≤ -4.2
11 | GGAUCUUCUCGAUCUAACAACAAAGACAAAUCUGUCACAAAGCUUGAGAGCAACUUCGGAUGCAGAGGCGGCAGCCUUCGGUGGCGGGAUAGCGCCAACGUUCUCAACUAGGACACGCAAAACGCGUGCUCCGUUGUAUGGAGUUUAUCAUG [A21C C35U U53A C87G U111G A137U] | ≤ -4.2
12 | GGAUCUUCUCGAUCUAACAACAAAGACAAAUCUGCCGCAAAGCUUGAGAGCAUCUUCGGAUGCAGAGGCGGCAGCCUUCGGUGGCGCGAUAGUGCCAACGUUCUCAACUAUGAGACGCAAAACGCGGGCUCCGUUGAAUGGAGUUUGUCAUG [A21C A37G C93U C114G U127G A147G] | ≤ -4.2
13 | GGAUCUUCUCGAUCUAACAACAAAGACACAUCUGCCACAAAGCUUGAGAGCAUCUUCGGAUGCAGAGGCGGCAGGCUUCGGUGGCGCGAUAGCGCCAACGUUCUCAACUAUGACACGCAAAACGCGUGCUCCGUUGAAUGGAGUUUAUCAUG [A21C A29C C75G] | ≤ -4.2
14 | GGAUCUUCUCGAUCUAACAACAAAGACAAAUCUGACACCAAGCUUGAGAGCAUCUUCGGAUGCAGAGGCGGCAGCCUUCGGUGGCGCGAUAGCGCCAACCUUCUCAACUAUGACACGCAAAACGCGUGCUCCGUUUAAUGGAGUUUAUCAUG [A21C C35A A39C G100C G136U] | ≤ -4.2
15 | GGAUCUUCUCGAUCUAACAACUAAGACAAAUCUGCCACAAAGCUUGAGAGCAUCUUCGGAUGCAGAGGCGGCAGCCUUCGGUGGCGCCAUAGCGCCAGCGUUCUCAACUAUGACACGCAAAACGCGUGCUCCGUUGAAUGAAGUUUACCAUG [A21C A22U G88C A98G G141A U148C] | ≤ -4.2
16 | GGAUCUUCUCGAUCUAACAACAUAGACAAAUCUGCCACGAAGCUUGAGAGCAAUUUCGGAUGCAGAGGCGGCAGCCUUCGGUGGCGCGAUAGCGCCAACGUUCUCAACUAUGACACGCAAAACGCGUGCUCCGUUGAAUGGAGUUUAUCAUG [A21C A23U A39G U53A C54U] | ≤ -4.2
17 | GGAUCUUCUCGAUCUAACAACAAAGACAGAUCUGCCACAAAGCGUGAGAGCAUCUUCGGAUGUAGAGUCGGCAGCCUUCGGUGGCGCGAUAGCGCCAACGUUUUCAACUAUGACACGCAAAACGCGUGCUCCGUUGGAUGGAUUUUAUCAUG [A21C A29G U44G C63U G68U C103U A137G G143U] | ≤ -4.2
18 | GGAUCUUCUCGAUCUAACAACAAAGACUAAUCUGCCACAAAGCUUGAGAGCAUCUUCGCAUGCAGAGGCGGCAGCCUUCGGCGGCGCGAUAGCGCUAACGUUCUCAACUAUAACACGCAAAACGCGUGCUCCGUUGAAUGGAGUUUAUCAUG [A21C A28U G59C U82C C96U G112A] | ≤ -4.2
19 | GGAUCUUCUCGAUCUAACAACAAAGACAAAUCUGCCACAAAGUUUGAGAGCAUCUUCGGAUGCAGAGGCGGCAGCCUUGGGUUGCGGGAUGGCGCCAACGUUCUCAACUAUGACACGCUAAACGCGUGCUCCGUUGAAUGAAGUUUAUCAUG [A21C C43U C79G G83U C87G A91G A119U G141A] | ≤ -4.2
